In PubChem BioAssay AID1745853 (National Center for Advancing Translational Sciences (NCATS), 2022):
Several values for one entry are separate records, joined by “and”; a condition that tells them apart may be missing. Equal values may be shown once. The list shows a part of the results. Further columns of the screen follow, without active or inactive calls.

How the values were obtained:
Experiment in all cases: Primary Screen for Target Class Profiling of Small Molecule Inhibitors of Methyltransferases
[1] = target: Glycine N-methyltransferase (Homo sapiens) (UniProt Q14749); conditions: purified enzyme, MTase-Glo SAH luminescence; measured here: GNMT inhibition; at 40 µM; stronger effect = lower value
Outline: (§1)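 Each enzyme was assayed with SAM and its substrate. SAH formation detected by MTase-Glo luminescence; single-point 40 uM screen[…].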

[2] = target: Guanidinoacetate N-methyltransferase (Homo sapiens) (UniProt Q14353); conditions: purified enzyme, MTase-Glo SAH luminescence; measured here: GAMT inhibition; at 40 µM; stronger effect = lower value
Outline: as §1

[3] = target: Histamine N-methyltransferase (Homo sapiens) (UniProt P50135); conditions: purified enzyme, MTase-Glo SAH luminescence; measured here: HNMT inhibition; at 40 µM; stronger effect = lower value
Outline: as §1

[4] = target: Nicotinamide N-methyltransferase (Homo sapiens) (UniProt P40261); conditions: purified enzyme, MTase-Glo SAH luminescence; measured here: NNMT inhibition; at 40 µM; stronger effect = lower value
Outline: as §1

[5] = target: Phenylethanolamine N-methyltransferase (Homo sapiens) (UniProt P11086); conditions: purified enzyme, MTase-Glo SAH luminescence; measured here: PNMT inhibition; at 40 µM; stronger effect = lower value
Outline: as §1
On the % scale 0 is the no-effect control and ±100 the full control effect.

| SMILES | activity change, negative = inhibition [1] [%] | activity change, negative = inhibition [2] | activity change, negative = inhibition [3] [%] | activity change, negative = inhibition [4] | activity change, negative = inhibition [5] |
| --- | --- | --- | --- | --- | --- |
| Cc1cc2c(cc3n2CC(C)(C(=O)NC2CCCCC2)N(Cc2ccccc2Cl)C3=O)o1 (stereo not given) | 0.7 | 0.71% | 0.581 | 1.36% | -4.75% |
| Cn1nccc1C(=O)N1C[C@@H](COc2ccccc2)[C@H](C(N)=O)C1 | -1.21 | -3.06% | 0.481 | 1.94% | -2.16% |
| CN1C(=O)c2cc(NC(=O)c3ccc4c(c3)OCO4)ccc2N2CCN=C12 | -6.31 | 0% | 4.4 | 11.7% | -4% |
| CCC(C)NC(=O)c1ccc2c(=O)n(CCC(C)C)c3nn(Cc4cccc(F)c4)c(=O)n3c2c1 (stereo not given) | -2.79 | 1.04% | 1.36 | -7.18% | -3.31% |
| Cc1cccc(CNC(=O)C(C)n2ccc3cc(S(=O)(=O)N4CCCC4)ccc32)c1 (stereo not given) | 8.06 | 0% | 2.62 | 8.69% | 4.49% |
| COc1cccc(Cn2nc3n(CC(C)C)c(=O)c4ccc(C(=O)NC(C)C)cc4n3c2=O)c1 | 1.77 | 5.76% | 1.71 | -1.15% | 2.94% |
| CN1CCC(Cc2ccc(C(=O)N3CCCC3)cc2)CC1 | -1.65 | -1.61% | -6.17 | -4.08% | 1.6% |
| COc1ccc2c(c1)c(NC(C)=O)c1n2CC(C)(C(=O)NC2CCCCC2)N(CCC(C)C)C1=O (stereo not given) | 3.37 | 0% | 6.96 | 3.74% | 0.879% |
| CC(C)OCCCN1C(=O)c2cc(-c3ccc(C(C)C)cc3)nn2CC1(C)C(=O)NC1CCCCC1 (stereo not given) | -8.1 | 4.07% | 4.5 | -2.08% | 0.273% |
| Cc1ccsc1C(=O)N1CCC(c2nc(CCOCC3CC3)no2)C1 (stereo not given) | -0.899 | 0.115% | 0.049 | -1.22% | -0.384% |
| CC(=O)O[C@@H]1C[C@@]23C[C@@]24CC[C@H](O[C@@H]2OC[C@H](O)[C@H](O)[C@H]2O)C(C)(C)[C@@H]4CC[C@H]3[C@]2(C)[C@@H](O)C34O[C@H](C[C@@H](C)[C@@H]3[C@@]12C)[C@@H](C(C)(C)O)O4 | -10.6 | -10.8% | 7.14 | -13.8% | 0.778% |
| COc1ccccc1S(=O)(=O)Nc1ccc2c(c1)CN(C)C(=O)N2 | -19.8 | -11.1% and -0.794% | 0.349 | -25% and -8.67% | -3.36% and 3.81% |
| OCCC1CCN(c2ccc(-c3nc(CCCc4ccccc4)no3)cn2)CC1 | -3.84 | -7.55% | -2.03 | -13.3% | -3.97% |
| O=C(c1ccc(C(F)(F)F)cc1)N1CCCC(C(=O)N2CCC(N3CCOC3=O)CC2)C1 (stereo not given) | -6.85 | -10.3% | -4.91 | -17% | -12.9% |
| COC(=O)c1cc2n(n1)CC(C)(C(=O)NC1CCCCC1)N(c1cc(C)cc(C)c1)C2=O (stereo not given) | -1.49 | 0.31% | -0.102 | 1.59% | -0.558% |
| Cc1cc2c(cc3n2CC(C)(C(=O)NC2CCCCCC2)N(CCc2ccc(Cl)cc2)C3=O)o1 (stereo not given) | 7.72 | 0% | 12.6 | 14.7% | 6.59% |
| C[C@@H](NC(=O)C1CCCC1)c1onc(-c2cccnc2)c1C(=O)O | -8.37 | -11.4% | -3.72 | -17.8% | -16.6% |
| CCC1c2ccc(C)n2CCN1C(=O)Nc1cc(Cl)ccc1C(=O)OC (stereo not given) | -9.82 | 0% | -3.09 | -4.38% | -2.53% |
| C=C1[C@H](OC(C)=O)[C@H]2[C@@H](OC(C)=O)C(C)C[C@]2(OC(C)=O)C(=O)[C@H](C)/C=C/C(C)(C)C(=O)[C@H](OC(=O)C(C)C)[C@H]1OC(C)=O (stereo not given in full) | 0 | -5.23% | 1.64 | -18.8% | 2.43% |
| C[C@H]1CN(C[C@H](Cc2ccccc2)C(=O)NCC(=O)O)CC[C@@]1(C)c1cccc(O)c1 | -4 | -5.9% | 7.83 | -19.6% | -0.543% |

| SMILES | activity change, negative = inhibition [1] [%] | activity change, negative = inhibition [2] | activity change, negative = inhibition [3] [%] | activity change, negative = inhibition [4] | activity change, negative = inhibition [5] |
| --- | --- | --- | --- | --- | --- |
| O=C(O)C1CCc2nnc(C3CCCN([S+](=O)([O-])c4cccc(C(F)(F)F)c4)C3)n21 (stereo not given) | -3.19 | -3.38% | -0.192 | -6.08% | -0.678% |
| CCc1ccc(NC(=O)CSc2nnc3[nH]c(=O)c(C)nn23)cc1 | -2.65 | 6.38% | -8.7 | -13.6% | -7.16% |
| Cc1cc(S(=O)(=O)NCCN2CCOCC2)ccc1Cl | -5.62 | 2.19% | 0.59 | 1.79% | -3.76% |
| C[S+](=O)([O-])N1CCN(c2nccc(Nc3ccccc3F)n2)CC1 | -9.17 | -7.53% | -2.02 | -14.5% | -12.7% |
| CC1(C(=O)NC2CCCCCC2)Cn2c(ccc2-c2ccccc2)C(=O)N1Cc1ccccc1F (stereo not given) | -2.24 | -2.39% | -7.06 | -8.02% | -5.45% |
| O=C(COc1ccccc1)N1C[C@@H]2C[C@H](C1)c1ccc(-c3cccc(C(F)(F)F)c3)c(=O)n1C2 | -7.07 | -10.2% | -3.78 | -12.8% | -7.05% |
| Cc1ccc(Cl)cc1N1CCN(S(=O)(=O)c2cc3c(cc2C)n(C)c(=O)n3C)CC1 | 8.87 | 1.61% | 10.1 | -1.8% | 5.95% |
| CCC(O)c1cc2n(n1)CCN(Cc1nccn1Cc1ccccc1)C2 (stereo not given) | -8.93 | -4.35% | -1.11 | -18.1% | -8.86% |
| CN1CCCCCCN(C(=O)c2cccn2C)[C@H]2CCC[C@H]2C1=O | -0.016 | 0.843% | -1.7 | -3.19% | -3.63% |
| CN(C)c1cc(CC2CC(=O)N(c3ccccc3)C2)ncn1 (stereo not given) | -7.59 | -6.51% | -13.3 | -14% | -28.5% |
| CC(C)(O)c1ccc2c(c1)C(=O)C[C@H]1[C@](C)(C(=O)O)CCC[C@]21C | 0.514 | 6.65% | 11 | -4.53% | 7.13% |
| C=Cc1ccc(CSc2nnc3n(CCCOC(C)C)c(=O)c4ccccc4n23)cc1 | -5.68 | 0.011% | -1.34 | -5.31% | 2.6% |
| CC(C)=C1C[C@@]2(C)C(=CC1=O)CC[C@@H](O)[C@@H]2C | 4.99 | 1.78% | 10.6 | -11.2% | -3.7% |
| COc1ccc2c(OC)c3ccoc3nc2c1OC | -22.8 | -0.985% | -10.9 | -15.9% | -3.46% |
| COc1ccccc1-n1c(SCC(=O)Nc2nc3ccc(C)cc3s2)nc2c(c1=O)SCC2 | -7.74 | -17% | 6.19 | -28.3% | -4% |
| Cn1c(=O)c2ccc(C(=O)NC3CCCCC3)cc2n2c(=O)n(Cc3ccc(N4CCCC4=O)cc3)nc12 | 4.93 | 0% | 11.1 | 2.97% | 4.92% |
| CCCCC(=O)N(Cc1ccc(-c2ccccc2-c2nn[nH]n2)cc1)C(C(=O)O)C(C)C (stereo not given) | -3.01 |  | 9.52 |  |  |
| Cc1ccc(C)c(NS(=O)(=O)c2cc3[nH]c(=O)[nH]c3cc2C)c1 | -2.35 | 0% | -0.071 | -2.12% | -3.4% |
| CCOC(=O)c1cc2n(n1)CC(C)(C(=O)NCc1ccc(C)cc1)N(Cc1ccc(C)cc1)C2=O (stereo not given) | 1.07 | 4.32% | 5.23 | -4.11% | -0.355% |
| COc1cc(O)cc(C)c1C(=O)OC1C(CO)OC(n2ccc(=O)[nH]c2=O)C1OC(C)=O (stereo not given) | 1.9 | -1.68% | 4.36 | -14.1% | 2.08% |

| SMILES | activity change, negative = inhibition [1] [%] | activity change, negative = inhibition [2] | activity change, negative = inhibition [3] [%] | activity change, negative = inhibition [4] | activity change, negative = inhibition [5] |
| --- | --- | --- | --- | --- | --- |
| Cc1ncccc1-c1nc2cc(C(=O)NCc3ccccc3F)ccc2o1 | -9.3 | -5.4% | -2.94 | -14.8% | 8.22% |
| CCOc1cc(CNC(=O)c2ncn3c2C(=O)N(CC)C(C)(C(=O)NC2CCCC2)C3)ccc1OC (stereo not given) | -0.626 | 0% | 10.8 | 6.28% | 9.76% |
| CC(=O)NCCC(=O)N1CCC2(CC1)CN(C(=O)NC(C)C)CCO2 | 0.627 | -4.65% | 0.748 | -0.212% | -0.811% |
| C=C1CCC2C(C)(C)CCCC2(C)C1CC/C(C)=C\CO (stereo not given) | -9.79 | -22% | -1.7 | -35.5% | -10.4% |
| CC(C)CCN1CCNC(=O)C1CC(=O)N(Cc1cnn(C)c1)C1CC1 (stereo not given) | -4.41 | 1.77% | 0.539 | -0.403% | -4.04% |
| COc1ccc(CNC(=O)C[C@@H]2CCNC[C@@H]2Cc2cc(C(C)(C)C)on2)cc1 | -6.93 | -4.96% | -3.28 | -9.4% | -8.14% |
| CC(C)OCCCn1c(=O)c2ccccc2n2c(SCc3ccc(F)cc3Cl)nnc12 | -3.43 | 0.242% | 6.61 | -15.9% | 2.97% |
| CCc1ccc(N2C(=O)c3cc4sccc4n3CC2(C)C(=O)NC2CCCCCC2)cc1 (stereo not given) | 4.92 | -40.9% | 4.91 | 3.77% | -1.54% |
| COc1ccc(-c2cc3c(=O)n(CCNC(=O)c4ccsc4)ccn3n2)cc1 | -15.4 | -8.14% | -6.4 | -17.6% | -9.25% |
| COc1cc(NS(C)(=O)=O)ccc1Nc1c2ccccc2nc2ccccc12 | -20.4 | -2.38% | -26 | -17.9% | -18.2% |
| CCOc1ccc(-c2cc3c(=O)n(CCNC(=O)c4cnccn4)ccn3n2)cc1 | -5.25 | -5.72% | 1.42 | -7.3% | -3.79% |
| CCn1c(N)c(C(=O)NC)c(=O)c2ccc(C#C[C@@](C)(O)COC)nc21 |  | -10.2% |  | -27.4% | -17% |
| C=CCn1c(=O)c2ccc(C(=O)NCC(C)C)cc2n2c(=O)n(CC(N)=O)nc12 | -2.34 | 3.18% | -1.4 | -1.16% | 2.39% |
| Cc1cccc(-c2n[nH]n3c2nc(=O)c2ccc(C(=O)N4CCN(c5ccccc5)CC4)cc23)c1 | -27.8 | -5.57% | -12.5 | -22.7% | -11.4% |
| COc1ccc(-c2cc(C(=O)NCC3CC3)c3c(C4CCNC4)noc3n2)cc1 (stereo not given) | -1.04 | -0.933% | -9.25 | -6.9% | -2.09% |
| CC(C)CCNC(=O)C1(C)Cn2nc(C(=O)NCC(C)c3ccccc3)cc2C(=O)N1C (stereo not given) | 2.57 | 0% | 5.24 | 6.2% | 2.57% |
| Cc1ccc(Cl)cc1N1C(=O)c2cc(C(C)(C)C)nn2CC1(C)C(=O)NC1CCCCC1 (stereo not given) | -6.66 | -2.21% | 1.25 | -1.18% | -6.32% |
| COc1cc(C(CO)C(OC2OC(CO)C(O)C(O)C2O)c2ccc(O)c(OC)c2)ccc1O (stereo not given) | 7.26 | 6.32% | 11.1 | -14.2% | 5.65% |
| Cc1cc(C)cc(NC(=O)Cn2nc3n(CCCOC(C)C)c(=O)c4ccccc4n3c2=O)c1 | -0.743 | 4.45% | 1.77 | -2.13% | 2.17% |
